# In PubChem BioAssay (NCI):
# More than one record can exist for a structure, and the calls need not agree.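 Assay: single dose, 48 h. Readout: percent growth (0 = no net growth; negative = cell death). Active: <10.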 Not every entry of the source has a single result; some have several. This list holds those alone. An entry can have further records. The screen tested this drug many times, at the concentration stated with the values; one value stands for one run. Additions like (4×) give the number of equal values in this list.
# Tested on: MDA-MB-468 breast
# Assay: NCI-60 one-dose screen, 48 h (100 = growth as untreated, 0 = no growth, -100 = all killed)
# Conditions: 0.25 µM
smiles,measurement,setting,value
COc1cccc2c1C(=O)c1c(O)c3c(c(O)c1C2=O)C[C@@](O)(C(=O)CO)C[C@@H]3OC1CC(N)C(O)C(C)O1 (stereo partly specified),growth,runs of 2007,"active: -8.64, -6.58, 8.75, -11.7, 8.92, -0.561, -0.305, -7.65, 1.72, 3.22, -14.3, 0.51, -4.6, 3.08% and inactive: 10.4, 42.7, 29.5, 32.8, 35.6, 12, 33.2, 13.4, 27.2%"
same,growth,runs of 2008,"active: -10.7, 4.32, -6.92, 7.94, -3.52, -4.01, -60.4, -53.4, -27.8, -4.6, 5.61, -1.88, -43.2, -10.6, -0.617, -70.1, -2.91, -23.8, -24.6, -28.2, -45.4, -56.4, 3.46, -3.68, -13.5, -33.9, -12.2, -8.16, -8.13, -25, -15, -28.4% and inactive: 31.5, 25.1, 21.2, 24.1, 16.4, 16.2, 16, 30.4, 15.4, 85.8, 12.2, 24.9, 13.9, 52, 35.5%"
same,growth,runs of 2009,"active: 6.31, 3.99, -2.32, -9.46, -25.6, -20.3, -12, -15.8, -1.66, -7.58, -10.6, -7.48, -13.4, -7.99, -9.58, -34.7, -37.9, 9.42, 5.85, -9.75, 9.49, -34, -9.49, -25.5 (2×), 9.53, -46.7, -26.8, -9.44, -34.1, -17.9, 3.62, 5.8, -35.1, -25, -34.3, -20.8, -18.1, -33, -21.6, -23.3, 0.823, -21.7, 4.13, -3.04, -23.4, -0.202, -1.39, -18.3, -1.92, -4.65, 4.5, 3.89, -7.27% and inactive: 22.6, 16.2, 13.4, 13.8, 20.3, 10.3, 25.9, 24.3, 16, 29.5, 19.2, 21.8, 11.5%"
same,growth,runs of 2010,"active: -13.4 (2×), 0.0925, 0.0628, -17.9, 6.91, 8.73, 4.83, -15.8, -25.2, -20.5, -11.7, -29.4, -26.2, -27.7, 4.84, -32.9, -8.96, -1.84, -15.2, -10.1, -20.9, -1.34, -12.3, -0.289, 3.63, -29.8, -8.91, -6.01, -8.43, -19.7, -12.6, -11.5, -14.1, -23.4, -10.9, -6.15, -24.9, -3.32, -15.3, 4.11, -0.278, 3.01, -3.75, -4.15, -1.52% and inactive: 13, 12.5, 12.7, 22, 20.4, 12.9%"
same,growth,runs of 2011,"active: 1.51, -4, 1.52, -12.2, -1.77, 7.11, 6.17, 4.11, -14.5, -6.49, 7.19, -6.67, -12.1, 3.4, -6.89, -10.2 (2×), 1.85 (2×), -6.95, 3.91, -9.85, 3.37, -31.9, -10.8, 2.11, -15.3, 3.5, 0.986, 5.54, 5.44, -2.02, -4.77, 0.346, 5.59, 8.56, -3.09, -2.06, 9.27, 6.93, -5.85, -7.97% and inactive: 22.7, 13.5, 17.4, 12, 18.3, 17.3, 19.6, 25.7, 12.9 (2×), 13.8, 16.2, 10.4, 11.9 (2×), 25.3, 22.5, 28.8, 18.2%"
same,growth,runs of 2012,"active: -14.3, -25, -31.9, -29.5, -12.4, -12.1, -11.8, -8.24, 4.3, -35.1, -45.2, -29.3, -27.1, -41.8, -26, -35.2, -28.4, -28.7 (2×), -26.8, -36.1, -9.65, -8.37, 5.67, -5.9, 1.07, 2.96, 9.97, 6.1, 4.73, 4.25, -14.5, -8.43, -38.1, -23.4, -5.34, -1.98, -5.97, 9.45, -0.894% and inactive: 19, 11.3, 20.3, 16.5 (2×), 22.5, 20.6, 33.4, 30.4, 14.6, 31.5, 21.9, 71.1, 46.5, 43.8, 47.9, 77.5, 25.8, 25.6, 27.9, 34.6, 29.5, 24.8, 42.7, 42.9, 29.9, 32.5, 41.3, 27.3, 30.9, 34.9, 39.1%"
same,growth,runs of 2013,"inactive: 36.1, 42.2, 30.4, 27.9, 24.8 (2×), 29, 22.6, 31.2, 21.9, 21.5, 14.3, 28.8, 12.2, 25.4, 26.2 (2×), 26.7, 20, 17.6, 17.5, 21.6 (2×), 25, 15.7, 29.7, 27.5, 22.5, 24.1, 33.3, 32.6, 26.8, 18.6, 20.8, 24.3, 19.1, 24.9 (2×), 13.4, 18.9, 20.2, 24.2, 27.6, 28.6, 29.8, 18.7 (2×), 28.4, 31.6, 46, 38.3, 29.2, 33.2, 29.9, 24.6, 18.1, 20.1, 13.8, 17.1, 16.5% and active: 8.86, 9.37, 1.82, 4.14, 2.36, 7.77, 1.4, 0.0889, -2.27, 3.51, 9.04, -6.04, -2.05, 6.8, -2.04%"
same,growth,runs of 2014,"active: 7.32, 8.53, 3.96, -17.9, -2.4, -8.18, -0.679, 0.425, 4.64, 5.47, 5.57, 4.51, 5.02, 2.87, 9.11, 9.43, 1.59, -5.04, -15.5, 2.34, 5.76, 4.89, -2.01, 5.1, 1.32, -6.26, 7.62, -8.19, 4.34, -5.47, -6.06, 1.39, -12.4, -5.51, -4.44, -7.18, 6.76, -0.586, -5.48, -2.07, 6.8, 8.2, -6.69, -1.98, -13, 8.32, -1.15, 6.92, 3.23, -8.62, 9.81, -1.83, -1.19, 8.76% and inactive: 11.7, 17.3, 22.6, 17.7, 11.1, 24.3, 24.9, 31.1 (2×), 30.6, 39.5, 30.3, 16.3, 21 (2×), 11.3, 15.4, 26.6 (2×), 31.7, 37.6, 18.1, 13.5, 14.6, 10.6, 17.9, 26.1, 16, 15.1, 13.4%"
same,growth,runs of 2015,"inactive: 28, 13.5 (2×), 23.2, 29.6, 21.1, 35.2, 28.8, 20.8, 25.9, 38.4, 30.6, 31.4, 51.5, 69, 57.5, 32.2, 27.4, 11.6, 31.3 (2×), 16.5, 32.7, 57.8, 33.1, 27 (2×), 32.4, 28.5, 32.8, 11.3, 13.9, 11, 22, 14.6, 11.4, 14.4, 21.4 (2×), 22.7, 16.7, 14.3, 38.2, 17.2, 19.8, 10.8, 11.8, 46.3, 40.9, 29.1, 26.2, 16.8, 20.4, 13.6, 12.6, 22.1, 12.4, 10.2% and active: 8.4, 1.37, -7.86, 5.56, -2.07, 3.13, 4.77, 3.15, -0.319, 4.67, 9.48, 3.98, 2.69, -3.65, 6.18, 0.678, 6.63, -5.54, 5.47, 0.447, 7.96, 9.92, 4.26, 9.02, 3.75, 2.91, -7.91, 9.53, 4.37, -7.13%"
same,growth,runs of 2016,"active: 5.28, 6.62, -7.22, -6.34, 9.1, 3.04, 4.21, 2.74, -1.06, 4.09, -8.56, -11.4, 9.79, 8.3, 2.12, 3.16, -5.4, 0.173, -1.53, -14.3, -18.5, -8.01, -2.95, 4.04, -0.343, -7.41, 7.99, 8.44, 7.12, 9.65% and inactive: 12.4, 18.7 (3×), 21.6, 31.7, 36.5, 28.2 (2×), 20.1, 11.6, 12.9, 16.4, 24.7, 12.5, 25.1, 25.4, 19.8, 33, 38.6 (2×), 20.2, 18.3, 17.3, 18.4, 25.2, 33.1, 28.4, 35.4, 42.4, 50.6, 34.8, 35.2, 40.7, 46.5, 39, 37.9, 37, 38.4, 41.6, 46.7, 38.7, 48.9, 53.8, 40.2, 30.8, 33.2, 32.8, 22.2, 32.4, 47.3, 29.9, 39.5, 10.6, 18.9, 32.9%"
same,growth,runs of 2017,"inactive: 24.3, 21.1 (2×), 10.9, 14.3, 16.5, 12.7, 18.7, 14.4 (2×), 19.1, 19.3 (2×), 20.1, 16.4, 26.9, 12.2, 27.2, 25.7, 26.6, 26 (2×), 24.9, 17.4, 21, 27.9, 27.3, 21.5, 13.8, 14.6, 14.5, 18.8, 15, 18.9, 27.1, 12.3 (2×), 17.1, 25.5, 39.5, 37.8, 13.4, 26.8, 20.2, 23.7% and active: 8.29, 2.01, 8.55, -3.32, 1.26 (2×), 9.87, 5.15, 6.25, 6.27, 7.22 (2×), 1.59, 8.35, -0.844, 4.03, 6.63, 6.8, 4.5, -3.26, 3.92, 5.36, 7.01, 6.74, 9.76, 5.31, 7.99, 6.03, 8.21, 9.39, 7.07, 9.67, 6.15, -0.592, 4.55, 8.42, 4.38%"
same,growth,runs of 2018,"inactive: 17.2 (2×), 22.7, 17.8 (2×), 19.9, 26.1 (2×), 13.5, 27.7, 23.2, 24.6, 47.4, 38.2, 40.9, 30.7, 42.6, 32.6, 32.3, 18.9, 17.7, 22.6, 11.3, 16.5, 19.7, 18.2 (2×), 13.9, 13, 17.5, 15.7, 17.4, 22.5, 24.1, 12.1% and active: 8.1, -6.02, -13.9, 5.35, 8.54, -0.471, -10.3, -13.7, -19.1, -4.09, -12.8, -14.1, -7.87, 3.97, -8.13, 7.41, -3.37, 4.55, -5.53%"
same,growth,runs of 2019,"active: -14.1, -2.48, -0.245, -3.63, 6.4, 2.91, 4.72, 3.3, -4.79, 4.32, 8.44, -0.378, 5.52, 9.93, 5.93, -2.02, 1.34, -18.2, 2.41, -3.93, -6.66, -10.1, 9.08, 6.62, 7.09, -2.33, -4.14, 4.95, -1.49, -4.44, 2.57, 0.173, -2.94, -0.745, 1.85, 7.08, 8.22, 9.29, 1.01, -4.12, -2.98, -7.53, -9.71, -20.1, -17.1% and inactive: 33.6, 20.2, 19.2, 17.6, 12.1%"
same,growth,runs of 2020,"active: -14.7, -19, -3.59, -19.2, -15.3, 1.11, -22.6, -12.2, -2.27, 9.21, -1.52, -17.1, -5.23, -2.02, -1.26, -6.55, -9.59, -21.4, -26.7, -27.9, -4.2, -1.48, 0.501% and inactive: 22%, 17.4%"
same,growth,runs of 2021,"active: -11.5, -3.25, -12.6, -4.94, 7.45, 6.47, 3.99, 7.65, 9.4, -13.1, -6.88 (2×), 0.37, -2.98, 9.74, 7.57, -5.57, -16.7, -5.52, -14.7, -24.2, -0.612, 1.8, -9.58, -9.75, -1.89, -2.18% and inactive: 25.5, 15.1 (2×), 18.1, 17.6, 24.5, 19.3, 10.3 (2×), 14.1, 12.3, 13.6, 15.7, 10.6, 13.1, 15, 14.9, 16.2, 12.7, 18.5, 21.8, 21.2, 23.7, 21.3, 15.9, 22.6, 27, 22.1, 15.4, 10.1, 24.1%"
same,growth,runs of 2022,"active: -16.7, -11.7, 7.71, -2.49, -43.9, -14.9, -30, -21.3, -18.1, -5.89, -11.8, -20.8, -2.98, -19.8, -2.92, -10.9, -14.8, -23.5, -24 (2×), -22.5, -15.5, -25.4% and inactive: 61.5, 41.8, 36.1, 89.6%"
